# Experimental data published in ChEMBL document CHEMBL4888484, “Replenishing the malaria drug discovery pipeline: Screening and hit evaluation of the MMV Hit Generation Library 1 (HGL1) against asexual blood stage Plasmodium falciparum ,using a nano luciferase reporter read-out” (2022).
# Hit rate of the full screen: of about 150,000 compounds, about 540 (0.36%) showed an effect of 50% or more. The list shows a part of the results.
# Test system: Plasmodium falciparum
# Test: Primary screen in NF54 nanoGlo assay, in single point, at 2uM, 72h; a lower Z score goes with more inhibition
# Assay type: functional, Erythrocyte
# Settings: timepoint 72 hour
SMILES,% Inhibition [%],Z score
Cc1ccc([C@@]2(O)CN3CCCCCC3=[N+]2c2ccc3c(c2)OCO3)cc1,3,-0.33
O=C(CCc1ccccn1)NC[C@@H](CO)Cc1ccncc1Cl,-19,2.01
O=C(CCN1CCCCC1=O)N[C@@H]1CCc2ccccc21,-24,2.14
C[C@H](CO)N(C)Cc1csc(Cn2ncc3ccccc3c2=O)n1,-8,1.06
COc1cc(C)ccc1OC(=O)c1c[nH]nc1C1CC1,24,-2.74
O=C(c1ccccn1)N1CC(S(=O)(=O)N2CCc3ccccc32)C1,-3,0.38
c1ccc(OCc2nc3ccccc3n2CC2CCN(Cc3ccccn3)CC2)cc1,3,-0.32
CCN(Cc1noc(C2CCC2)n1)c1cc([C@H]2CCOC2)ncn1,-7,1.47
CCc1cc(C#N)c(NC(=O)c2cc(C3CC3)n(C)n2)s1,-8,1.12
c1coc(C(CNC2COCc3ncccc32)N2CCCC2)c1 (configuration not stated),4,-0.78
O=C(Nc1ccc2c(c1)OCO2)c1cccnc1O,-6,0.58
CCOC(=O)N1CCN(C(=O)Cc2cc(-c3ccc4c(c3)C[C@H](C)O4)on2)CC1,-4,0.7
O=C(C[C@@H]1CCNC[C@@H]1Cc1cc(CC2CCCCC2)on1)N1CCOCC1,-5,0.71
CC1Cc2ccccc2N1C(=O)CS(=O)(=O)CC1CCCO1 (configuration not stated),0,0.06
Cc1csc(NC(=O)c2ccnc(N(C)C)c2)n1,-9,0.86
CCC1(O)CN(c2nc(C(C)(C)C)ns2)C1,10,-1.05
COc1cc(CNC(C)COC2CCOC2)ccc1F (configuration not stated),-12,1.57
N=C(N)Nc1ccc(Br)cc1,8,-1.37
Cc1[nH]ncc1C(=O)NC1CC(=O)N(C2CC2c2ccccc2)C1 (configuration not stated),-10,1.96

SMILES,% Inhibition [%],Z score
C[C@H](NCc1c(Br)c2ccccc2n1C)c1cnn(C)c1,-18,2.46
CN(C)S(=O)(=O)N1CCC(OCc2noc([C@@H]3CCCO3)n2)CC1,-1,0.08
O=C(Cc1coc2ccccc12)N1CCOC[C@@H]1CCO,-10,1.71
Cc1ccc(Nc2c(-c3ccc(N4CCOCC4)cc3)nc3c(C)cccn23)cc1,18,-1.78
C=CCNC(=O)NCc1cccc(Br)c1OC,0,0.03
O=C(Nc1ccccc1F)C1CN(S(=O)(=O)C2CC2)C1,-9,1.41
CN(C)C(=O)CO[C@H]1CCOC[C@H]1NC(=O)c1ccc(N(C)C)cc1,8,-1.15
CC(=O)N(C)c1ccc(NC(=O)[C@H](C)c2cnn(C)c2)cn1,-7,0.95
CC(C)n1ccc(-c2nnc(NC(=O)c3cc(Cl)sc3Cl)o2)n1,-7,1.07
CCc1nc(CN[C@@H](C)c2ccc(-n3cccn3)cc2)no1,-13,1.71
O=S(=O)(NCCOCC(F)(F)F)c1cc(F)c(F)c(F)c1,-7,1.09
CC(C)(O)Cn1nc(CC(N)=O)nc1-c1cc2c([nH]c1=O)CCCC2,-10,1.42
COc1ccc(OCC=CCN2CCC[C@H](C)C2)cc1,14,-2.51
CC(C)N(C[C@H]1COc2ccccc2O1)C(=O)c1cc2n(n1)CCCNC2,20,-2.52
Cc1c(-c2noc(C(=O)N3CCC(Cc4ccccc4)CC3)n2)oc2c(C)cccc12,-7,0.89
NC(=O)CC1COCCN1C(=O)C1CC12CCOc1ccccc12 (configuration not stated),16,-1.97
COc1cccc(C2CC2CNC(C)=O)c1 (configuration not stated),-12,1.55
CC[C@]1(CO)CCCN(Cc2nc(-c3ccccc3)cs2)C1,-1,0.15
CCN(CCOc1cccc(Cl)c1)C(=O)[C@@H](C)Cn1cncn1,-8,1.51

SMILES,% Inhibition [%],Z score
CC(NC(=O)N(C)Cc1nc2ccccc2c(=O)[nH]1)C1CCCO1 (configuration not stated),-3,0.64
Cc1cc(N[C@H]2CCCCNC2=O)n2nc(C)cc2n1,-3,0.31
Cc1c(NC(=O)c2ccco2)c(=O)n(-c2ccccc2)n1C,-10,1.04
CC[C@H](NC(=O)c1nnc2n1CCCC2)c1cc(C)ccn1,-2,0.39
N#Cc1ccccc1CN1C(=O)NC2(Cc3ccccc3C2)C1=O,-3,0.48
CCCn1nc(-c2ccccc2OC)cc1C(=O)NCC1CC1,-12,1.56
COCCS(=O)(=O)NC(=O)C1CC12CCc1ccccc12 (configuration not stated),-9,1.62
CN(Cc1ccc(-n2cccn2)cc1)C(=O)c1ccc(C#N)nc1,-9,0.96
O=S(=O)(CCC1CCCC1)N1CCO[C@H](c2nccs2)C1,-12,0.99
CCc1noc(COCC(=O)N2c3ccccc3CC2(C)C)n1,2,-0.23
Cc1ccc(Cl)cc1N1CCN(C(=O)c2ccc(CS(=O)(=O)c3ccc(Br)cc3)o2)CC1,-16,2.05
COc1ccc(NC(=O)C(=O)N[C@@H](C)c2ccccc2)cc1N1CCCCS1(=O)=O,-8,1.02
CC1(CNC(=O)CC(=O)NCC(F)(F)F)CCCCCC1,-2,0.44
CCc1nn(C)c(Cl)c1CN1CCCn2nc(CO)cc2C1,3,-0.51
C[C@H]1[C@@H](NC(=O)c2c[nH]c(=O)c(Br)c2)CCS1(=O)=O,6,-1.13
Cc1noc(Cn2cnc3ccccc3c2=O)n1,11,-1.98
CCCc1cc(NC(=O)C2(OCC)CCCC2)n[nH]1,5,-0.78
Cc1nn(C(F)F)cc1-c1cccc(C(=O)NCCn2nc(C)c(C)c2C)c1,9,-1.71
